Paper PMC6092318, “Keap1–MCM3 interaction is a potential coordinator of molecular machineries of antioxidant response and genomic DNA replication in metazoa” (Scientific Reports, 2018)
No constants are given. Whether binding was seen depends on the method and setting. For part of these data: Binding seen in cells or lysates may run through a third protein. Some entries that bind do so weakly or less than the wild type. For part of these data: Sequences can lack the tags named with a protein.

Protein sequences, listed by entry. Tags and fused reporters are not part of them. Lines headed by an entry give the natural chain unless they say otherwise; changes in a name come on top.
UniProt Q9Z2X8: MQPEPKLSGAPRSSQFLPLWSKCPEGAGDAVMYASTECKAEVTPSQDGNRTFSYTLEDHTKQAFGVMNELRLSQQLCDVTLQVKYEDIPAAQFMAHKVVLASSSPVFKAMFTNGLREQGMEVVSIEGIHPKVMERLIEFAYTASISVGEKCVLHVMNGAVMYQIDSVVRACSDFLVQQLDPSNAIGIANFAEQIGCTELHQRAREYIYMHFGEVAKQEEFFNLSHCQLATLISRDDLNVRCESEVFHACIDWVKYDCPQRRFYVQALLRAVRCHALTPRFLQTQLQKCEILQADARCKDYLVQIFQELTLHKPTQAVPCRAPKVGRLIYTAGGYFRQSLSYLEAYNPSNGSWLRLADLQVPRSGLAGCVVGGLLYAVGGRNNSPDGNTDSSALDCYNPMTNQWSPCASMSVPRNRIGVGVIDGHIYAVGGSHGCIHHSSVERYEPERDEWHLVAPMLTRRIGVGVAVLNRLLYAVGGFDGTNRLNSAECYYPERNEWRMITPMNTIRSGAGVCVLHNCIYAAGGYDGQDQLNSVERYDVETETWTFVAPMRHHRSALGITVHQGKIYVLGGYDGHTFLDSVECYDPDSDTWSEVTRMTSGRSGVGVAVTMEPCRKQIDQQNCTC
UniProt P97310: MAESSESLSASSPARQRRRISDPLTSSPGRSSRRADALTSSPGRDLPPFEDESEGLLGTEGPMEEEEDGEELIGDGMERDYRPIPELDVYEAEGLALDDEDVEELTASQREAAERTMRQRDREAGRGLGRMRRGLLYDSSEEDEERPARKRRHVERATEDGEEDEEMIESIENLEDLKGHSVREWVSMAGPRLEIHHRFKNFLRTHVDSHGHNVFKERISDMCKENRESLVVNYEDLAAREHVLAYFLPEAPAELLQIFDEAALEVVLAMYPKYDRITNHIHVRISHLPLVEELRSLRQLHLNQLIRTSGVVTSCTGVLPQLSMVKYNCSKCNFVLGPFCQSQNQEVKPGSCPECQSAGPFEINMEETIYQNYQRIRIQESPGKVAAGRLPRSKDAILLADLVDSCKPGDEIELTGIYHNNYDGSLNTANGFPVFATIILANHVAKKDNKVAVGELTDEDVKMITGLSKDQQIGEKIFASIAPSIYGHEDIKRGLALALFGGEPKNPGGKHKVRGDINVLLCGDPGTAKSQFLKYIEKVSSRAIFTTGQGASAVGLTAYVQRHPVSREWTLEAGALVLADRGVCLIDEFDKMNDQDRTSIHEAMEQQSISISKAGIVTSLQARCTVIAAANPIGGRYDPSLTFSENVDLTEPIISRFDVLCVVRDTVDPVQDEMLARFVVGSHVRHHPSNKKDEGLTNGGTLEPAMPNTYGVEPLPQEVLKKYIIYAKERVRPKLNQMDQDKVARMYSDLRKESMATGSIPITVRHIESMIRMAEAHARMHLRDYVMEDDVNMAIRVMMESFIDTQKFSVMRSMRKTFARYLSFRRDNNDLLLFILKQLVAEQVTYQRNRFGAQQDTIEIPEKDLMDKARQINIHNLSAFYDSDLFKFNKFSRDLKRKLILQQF
UniProt Q14145: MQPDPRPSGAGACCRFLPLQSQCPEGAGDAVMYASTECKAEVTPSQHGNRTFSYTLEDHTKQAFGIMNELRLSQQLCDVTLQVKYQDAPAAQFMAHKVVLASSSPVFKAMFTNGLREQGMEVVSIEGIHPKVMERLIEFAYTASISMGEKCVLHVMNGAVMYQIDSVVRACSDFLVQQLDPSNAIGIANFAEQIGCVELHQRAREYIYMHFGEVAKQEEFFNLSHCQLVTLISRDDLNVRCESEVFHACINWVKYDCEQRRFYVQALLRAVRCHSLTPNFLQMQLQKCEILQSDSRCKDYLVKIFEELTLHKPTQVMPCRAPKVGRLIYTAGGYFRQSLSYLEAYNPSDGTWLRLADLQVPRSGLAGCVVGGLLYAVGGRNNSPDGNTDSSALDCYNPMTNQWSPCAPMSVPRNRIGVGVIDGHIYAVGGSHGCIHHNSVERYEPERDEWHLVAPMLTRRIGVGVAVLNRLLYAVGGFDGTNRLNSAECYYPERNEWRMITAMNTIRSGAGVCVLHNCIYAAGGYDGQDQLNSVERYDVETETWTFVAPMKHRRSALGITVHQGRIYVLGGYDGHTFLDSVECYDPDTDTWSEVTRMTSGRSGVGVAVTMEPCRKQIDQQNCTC

How the values were obtained:
[1] = molecular target: T1, FLAG-MCM3 (mouse, wild type, baculovirus) (mouse) (UniProt P25206); assay: SEC; MCM2-7 from baculovirus co-expression in Sf9 cells, size exclusion chromatography profile (Supplementary Fig. S7); details not shown
T1 sequence: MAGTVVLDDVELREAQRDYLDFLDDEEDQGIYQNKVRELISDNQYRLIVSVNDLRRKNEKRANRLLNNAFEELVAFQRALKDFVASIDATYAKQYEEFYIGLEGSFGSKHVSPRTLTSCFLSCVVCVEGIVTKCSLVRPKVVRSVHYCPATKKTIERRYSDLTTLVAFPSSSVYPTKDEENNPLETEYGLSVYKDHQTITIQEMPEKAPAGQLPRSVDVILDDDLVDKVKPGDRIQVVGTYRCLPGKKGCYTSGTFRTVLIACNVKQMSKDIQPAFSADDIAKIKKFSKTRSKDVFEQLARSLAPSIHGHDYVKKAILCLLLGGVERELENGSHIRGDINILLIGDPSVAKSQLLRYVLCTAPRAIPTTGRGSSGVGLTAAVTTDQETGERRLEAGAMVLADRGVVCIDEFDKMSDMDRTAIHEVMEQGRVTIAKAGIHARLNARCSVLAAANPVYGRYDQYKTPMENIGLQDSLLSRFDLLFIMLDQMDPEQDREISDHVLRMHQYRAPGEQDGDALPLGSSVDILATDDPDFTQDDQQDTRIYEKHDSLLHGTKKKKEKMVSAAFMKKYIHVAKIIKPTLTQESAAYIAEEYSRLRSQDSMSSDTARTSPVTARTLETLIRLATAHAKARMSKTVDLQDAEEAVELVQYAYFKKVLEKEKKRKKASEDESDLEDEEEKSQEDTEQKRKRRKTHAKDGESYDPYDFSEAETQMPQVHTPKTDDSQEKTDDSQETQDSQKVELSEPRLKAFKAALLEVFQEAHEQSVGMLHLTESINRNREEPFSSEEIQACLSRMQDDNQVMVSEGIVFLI

[2] = molecular target: T2, MCM3 (endogenous, human primary epidermal keratinocytes) (human (endogenous in primary epidermal keratinocytes)) (UniProt P25205); assay: proximity ligation; Duolink PLA on fixed human primary epidermal keratinocytes, goat anti-MCM3 and mouse anti-Keap1, endogenous proteins
T2 sequence: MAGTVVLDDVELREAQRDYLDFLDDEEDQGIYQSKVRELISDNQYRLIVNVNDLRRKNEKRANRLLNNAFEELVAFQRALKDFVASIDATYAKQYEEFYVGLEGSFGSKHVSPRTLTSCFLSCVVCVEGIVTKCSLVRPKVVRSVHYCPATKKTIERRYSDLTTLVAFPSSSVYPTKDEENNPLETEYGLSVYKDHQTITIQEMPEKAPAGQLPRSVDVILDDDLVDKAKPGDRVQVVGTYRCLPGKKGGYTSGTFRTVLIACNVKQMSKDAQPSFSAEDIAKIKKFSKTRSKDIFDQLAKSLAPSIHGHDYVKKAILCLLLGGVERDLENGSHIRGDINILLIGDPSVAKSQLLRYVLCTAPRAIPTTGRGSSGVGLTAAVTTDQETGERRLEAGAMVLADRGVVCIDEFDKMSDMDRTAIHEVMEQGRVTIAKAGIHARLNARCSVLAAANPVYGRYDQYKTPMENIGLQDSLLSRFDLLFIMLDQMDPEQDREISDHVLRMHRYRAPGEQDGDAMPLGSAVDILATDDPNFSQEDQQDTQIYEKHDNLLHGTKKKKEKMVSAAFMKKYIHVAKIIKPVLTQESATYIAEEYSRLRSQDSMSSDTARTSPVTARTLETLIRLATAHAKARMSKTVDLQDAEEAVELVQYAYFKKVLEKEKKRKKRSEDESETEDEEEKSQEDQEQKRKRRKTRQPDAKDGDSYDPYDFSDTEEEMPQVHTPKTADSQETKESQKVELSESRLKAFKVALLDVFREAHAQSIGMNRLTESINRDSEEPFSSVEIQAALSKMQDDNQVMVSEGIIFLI

[3] = molecular target: strep-Keap1 (mouse, wild type, baculovirus) (mouse) (UniProt Q9Z2X8); assay: pull-down; tandem affinity (FLAG-MCM3 then strep-Keap1, and strep-Keap1 then FLAG-MCM3) from Sf9 cells expressing Keap1 and all six MCM2-7 subunits, 100 mM KCl buffer, Coomassie stained gels
[4] = molecular target: strep-Keap1 (mouse, wild type, baculovirus) (mouse) (UniProt Q9Z2X8); assay: pull-down; tandem affinity (strep-Keap1 then FLAG-MCM3) from Sf9 cells expressing all six MCM2-7 subunits, Keap1 and MCM-BP, 100 mM KCl buffer, Coomassie stained gel, bands verified by mass spectrometry
[5] = molecular target: strep-Keap1 (mouse, wild type, baculovirus) (mouse) (UniProt Q9Z2X8); assay: pull-down; Strep-Tactin beads (strep-Keap1 as bait) on extracts of baculovirus co-infected Sf9 cells, 1 hr at 4 °C, washes with 250 mM KCl buffer pH 7.8, Western blot
[6] = molecular target: strep-Keap1 mutant R380A/R415A (mouse, baculovirus) (mouse) (UniProt Q9Z2X8); assay: as above

In the case of “MCM2 (mouse, baculovirus) (from UniProt P97310 1-904)”, the binding [1] is reported as “binds”.

“Keap1 (endogenous, human primary epidermal keratinocytes) (from UniProt Q14145 1-624)” was tested, and the binding [2] was “binds”.

B1: FLAG-MCM3 (mouse, wild type, baculovirus) (natural protein, UniProt P25206 1-812, looked up)
chain: T1 sequence
notes: MCM3, mouse; cDNA cloned into pFastBac1; also called WT MCM3; source: Sf9, baculovirus infected, in extract; not shown: FLAG, N-terminal, kept
B1 was tested, and the binding [3] was “binds”, the binding [4] was “binds” and the binding [5] was “binds”. The binding [6] was “no binding”.

B2: MCM4 (mouse, baculovirus) (protein, UniProt P49717 1-862)
chain: MSSPASTPSRRSSRRGRVTPTQSLRSEESRSSPNRRRRGEDSSTGELLPMPTSPGADLQSPPAQNALFSSPPQMHSLAIPLDFDVSSPLTYGTPSSRVEGTPRSGVRGTPVRQRPDLGSARKGLQVDLQSDGAAAEDIVPSEQSLGQKLVIWGTDVNVATCKENFQRFLQCFTDPLAKEEENVGIDITQPLYMQQLGEINITGEPFLNVNCEHIKSFSKNLYRQLISYPQEVIPTFDMAVNEIFFDRYPDSILEHQIQVRPFNALKTKSMRNLNPEDIDQLITISGMVIRTSQLIPEMQEAFFQCQVCAHTTRVEIDRGRIAEPCSCVHCHTTHSMALIHNRSFFSDKQMIKLQESPEDMPAGQTPHTIVLFAHNDLVDKVQPGDRVNVTGIYRAVPIRVNPRVSNVKSVYKTHIDVIHYRKTDAKRLHGLDEEAEQKLFSEKRVKLLKELSRKPDIYERLASALAPSIYEHEDIKKGILLQLFGGTRKDFSHTGRGKFRAEINILLCGDPGTSKSQLLQYVYNLVPRGQYTSGKGSSAVGLTAYVMKDPETRQLVLQTGALVLSDNGICCIDEFDKMNESTRSVLHEVMEQQTLSIAKAGIICQLNARTSVLAAANPIESQWNPKKTTIENIQLPHTLLSRFDLIFLMLDPQDEAYDRRLAHHLVSLYYQSEEQVEEEFLDMAVLKDYIAYAHSTIMPRLSEEASQALIEAYVNMRKIGSSRGMVSAYPRQLESLIRLAEAHAKVRFSNKVEAIDVEEAKRLHREALKQSATDPRTGIVDISILTTGMSATSRKRKEELAEALRKLILSKGKTPALKYQQLFEDIRGQSDTAITKDMFEEALRALADDDFLTVTGKTVRLL
For B2, the binding [1] was “binds”.

B3: MCM5 (mouse, baculovirus) (protein, UniProt P49718 1-734)
chain: MSGFDDPGIFYSDSFGGDPGAEEGQARKSQLQRRFKEFLRQYRVGTDRTGFTFKYRDELKRHYNLGEYWIEVEMEDLASFDEELADHLHKQPAEHLQLLEEAAKEVADEVTRPRPAGDELLQDIQVMLKSDASPSSIRILKSDMMSHLVKIPGIIISASAVRAKATRISIQCRSCHNTLTNIAMRPGLEGYALPRKCNMDQAGRPKCPLDPYFIMPDKCKCVDFQTLKLQELPDAVPHGEMPRHMQLYCDRYLCDKVVPGNRVTIMGIYSIKKFGLNPSKGRDRVGVGIRSSYIRVLGIQVDTDGSGRSFAGSVSPQEEEEFRRLAALPNIYELISKSISPSIFGGMDMKKAIACLLFGGSRKRLPDGLTRRGDINLLMLGDPGTAKSQLLKFVEKCSPIGVYTSGKGSSAAGLTASVIRDPSSRNFIMEGGAMVLADGGVVCIDEFDKMREDDRVAIHEAMEQQTISIAKAGITTTLNSRCSVLAAANSVFGRWDETKGEDNIDFMPTILSRFDMIFIVKDEHNEERDMMLAKHVMTLHVSALTQTQAVEGEIDLAKMKKFIAYCRARCGPRLSAEAAEKLKNRYIIMRSGARQHERDSDRRSSIPITVRQLEAIVRIAEALSKMKLQPFATEADVEEALRLFQVSTLDAALSGNLSGVEGFTTQEDQEMLSRIEKQLKRRFAIGSQVSEHSIVQDFTKQKYPEHAIRKVLQLMLRRGEIQHRMQRKVLYRLK
With B3 the binding [1] was “binds”.

B4: MCM6 (mouse, baculovirus) (protein, UniProt P97311 1-821)
chain: MDLAAAAEPGAGSQHPEVRDEVAEKCQKLFLDFLEEFQGSDGEIKYLQFAEELIRPERNTLVVSFADLEQFNQQLSTTIQEEFYRVYPYLCRALKTFVKDRKEIPFAKDFYVAFQDLPTRHKIRELTSSRIGLLTRISGQVVRTHPVHPELVSGTFLCLDCQTVIKDVEQQFKYTQPNICRNPVCANRKRFLLDTNKSRFVDFQKVRIQETQAELPRGSIPRSLEVILRAEAVESAQAGDRCDFTGALIVVPDVSKLSTPGARAETNSRVSGADGYETEGIRGLRALGVRDLSYRLVFLACHVAPTNPRFGGKELRDEEQTAESIKNQMTVKEWEKVFEMSQDKNLYHNLCTSLFPTIHGNDEVKRGVLLMLFGGVPKTTGEGTSLRGDINVCIVGDPSTAKSQFLKHVDEFSPRAVYTSGKASSAAGLTAAVVRDEESHEFVIEAGALMLADNGVCCIDEFDKMDMRDQVAIHEAMEQQTISITKAGVKATLNARTSILAAANPVSGHYDRSKSLKQNINLSAPIMSRFDLFFILVDECNEVTDYAIARRIVDLHSRIEESIDRVYSLDDIRRYLLFARQFKPKISKESEDFIVEQYKRLRQRDGSGVTKSSWRITVRQLESMIRLSESMARMHCCDEVQPKHVKEAFRLLNKSIIRVETPDVNLDQEEEIQMETDEGQGGVNGHADSPAPVNRFNGSSEDASQETVSKPSLRLGFAEYCRISNLIVLHLRKMEEEEDESALKRSELVNWYLKEIESEIDSEEELINKKTIIEKVVHRLTHYDHVLIELTQAGLKGSSEGSESYEEDPYLVVNPNYLLED
In the case of B4, the binding [1] is reported as “binds”.
